Columns and labels:
Format in all cases: biochemical, human
[1] = substrate: CCCCCCCCOCOc1ccc2nc3ccc(=O)cc-3oc2c1; assay: Kinetic properties of fluorogenic substrates with CYP 3A4; conditions: other: ( ) = from Michaelis-Menten fit; — = too low to quantify
Source text: (§1) For further understanding these terms in the context of this invention, attention is directed to FIG. 4 and the analysis of FIG. 4.
(§2) (respectively, MFC and MR).

[2] = substrate: CCCCCCCCOCOc1ccc2cc(C#N)c(=O)oc2c1; assay: as above; conditions: other: ( ) = from Michaelis-Menten fit; — = too low to quantify
Source text: as §1, §2

[3] = substrate: Cc1cc(=O)oc2cc(OCOCc3ccccc3)ccc12; assay: as above; conditions: other: ( ) = from Michaelis-Menten fit; — = too low to quantify
Source text: as §1, §2

[4] = substrate: N#Cc1cc2ccc(OCOCc3ccccc3)cc2oc1=O; assay: as above; conditions: other: ( ) = from Michaelis-Menten fit; — = too low to quantify
Source text: as §1, §2

[5] = substrate: O=c1ccc2nc3ccc(OCc4ccccc4)cc3oc-2c1; assay: as above; conditions: other: ( ) = from Michaelis-Menten fit; — = too low to quantify
Source text: as §1, §2

[6] = substrate: CCOCOc1ccc2nc3ccc(=O)cc-3oc2c1; assay: as above; conditions: other: ( ) = from Michaelis-Menten fit; — = too low to quantify
Source text: as §1, §2

[7] = substrate: CC1(C)C2=C(Cl)C(=O)C(Cl)=CC2=Nc2ccc(OCOCc3ccccc3)cc21; assay: as above; conditions: other: ( ) = from Michaelis-Menten fit; — = too low to quantify
Source text: as §1, §2

[8] = substrate: O=C(OCc1ccccc1)c1c2oc3cc(OCc4ccccc4)ccc3nc-2ccc1=O; assay: as above; conditions: other: ( ) = from Michaelis-Menten fit; — = too low to quantify
Source text: as §1, §2

[9] = substrate: COc1ccc(COc2ccc3c(C(F)(F)F)cc(=O)oc3c2)cc1; assay: as above; conditions: other: ( ) = from Michaelis-Menten fit; — = too low to quantify
Source text: as §1, §2

[10] = substrate: COCOc1ccc2nc3ccc(=O)cc-3oc2c1; assay: as above; conditions: other: ( ) = from Michaelis-Menten fit; — = too low to quantify
Source text: as §1, §2

[11] = substrate: O=c1ccc2nc3ccc(OCOCc4ccccc4)cc3oc-2c1; assay: as above; conditions: other: ( ) = from Michaelis-Menten fit; — = too low to quantify
Source text: as §1, §2

[12] = substrate: O=c1ccc2nc3ccc(OCOCc4ccccc4)cc3oc-2c1; assay: Kinetics of BOMR and BR toward CYP 3A4 (FIG. 4); conditions: other: from FIG. 4 data
Source text: Whichever of the four abstractable hydrogen atoms (designated H^1 and H^2 in this representation of BOMR) is removed in the initial reaction step, with reference to Reaction Scheme 1 of FIG. 1, the hydroxylation product will spontaneously decompose to the free resorufin dye. In addition, the benzyloxy group, attached to the carbon carrying the two hydrogens designated H^2, contributes an inductive electronic effect on that carbon, which can stabilize the radical formed during abstraction of one of the H^2 hydrogens by a cytochrome P450.
Optimization of assay conditions was, and is preferably, accomplished through statistically validated Design of Experiments methodologies, using the commercial software package “Design-Expert®” produced by Stat-Ease® Inc. The data shown in FIGS. 4 and 5 were obtained with initial optimization.

[13] = substrate: O=C(O)c1ccccc1-c1c2ccc(=O)cc-2oc2cc(OCOCc3ccccc3)ccc12; assay: Kinetic properties of fluorescein-based fluorogenic substrates with CYP 3A4; conditions: pH 8.0
Procedure: Dibenzylfluorescein (DBF) was purchased form Gentest, Woburn, Mass. […] DBF, BOMF and DBOMF were diluted from a stock solution of 2 mM in acetonitrile to a 4×concentration of 80 μM in 100 mM K+ phosphate buffer. Seven 1:2 dilutions were made of each substrate of which 25 μl was added to the appropriate wells. […] The cytochrome P450 isozyme CYP3A4 was diluted to give a 0.5 pmol enzyme per well and added in a volume of 10 μl/well in K+ phosphate, pH 8.0. Enzymatic conversion of the substrate to products was allowed to proceed for 1 hour with fluorescence reads taken every four minutes on a fluorescence microtiter plate reader. The solution was illuminated using an 485/20 nm excitation filter and fluorescence emission was detected through a 530/25 nm the emission filter.

B1: CYP 3A4 (Homo sapiens) (protein)
chain: MALIPDLAMETWLLLAVSLVLLYLYGTHSHGLFKKLGIPGPTPLPFLGNILSYHKGFCMFDMECHKKYGKVWGFYDGQQPVLAITDPDMIKTVLVKECYSVFTNRRPFGPVGFMKSAISIAEDEEWKRLRSLLSPTFTSGKLKEMVPIIAQYGDVLVRNLRREAETGKPVTLKDVFGAYSMDVITSTSFGVNIDSLNNPQDPFVENTKKLLRFDFLDPFFLSITVFPFLIPILEVLNICVFPREVTNFLRKSVKRMKESRLEDTQKHRVDFLQLMIDSQNSKETESHKALSDLELVAQSIIFIFAGYETTSSVLSFIMYELATHPDVQQKLQEEIDAVLPNKAPPTYDTVLQMEYLDMVVNETLRLFPIAMRLERVCKKDVEINGMFIPKGVVVMIPSYALHRDPKYWTEPEKFLPERFSKKNKDNIDPYIYTPFGSGPRNCIGMRFALMNMKLALIRVLQNFSFKPCKETQIPLKLSLGGLLQPEKPVVLKVESRDGTVSGA
B1 gave a Km [1] of 1.4 µM, a kcat [1] of 0.011 s⁻¹ and a kcat/Km [1] of 7857 M⁻¹ s⁻¹. The Km [2] was 4.4 µM, the kcat [2] was 0.0198 s⁻¹ and the kcat/Km [2] was 4508 M⁻¹ s⁻¹. For the same protein, the Km [3] was 22.0 µM, the kcat [3] was 0.0667 s⁻¹ and the kcat/Km [3] was 3030 M⁻¹ s⁻¹. For the same protein, the Km [4] was “(89.0) microM”, the Km [5] was 5.3 µM and the kcat [5] was 0.00167 s⁻¹. It also gave a kcat/Km [5] of 377 M⁻¹ s⁻¹, a Km [6] of 4.5 µM and a kcat [6] of 0.00167 s⁻¹. The kcat/Km [6] was 489 M⁻¹ s⁻¹, the Km [7] was 7 µM and the kcat [7] was 0.1 s⁻¹. It also gave a kcat/Km [7] of 14286 M⁻¹ s⁻¹, a Km [8] of 2.7 µM and a kcat [8] of 0.0138 s⁻¹. The kcat/Km [8] was 5123 M⁻¹ s⁻¹, the Km [9] was 13 µM and the kcat [9] was 0.012 s⁻¹. For the same protein, the kcat/Km [9] was 897 M⁻¹ s⁻¹, the Km [10] was 6 µM and the kcat [10] was 0.001 s⁻¹. For the same protein, the kcat/Km [10] was 167 M⁻¹ s⁻¹, the Km [11] was 1.4 µM and the kcat [11] was 0.0183 s⁻¹. The kcat/Km [11] was 13100 M⁻¹ s⁻¹, the Km [12] was 1.9 µM and the kcat [12] was 0.5 s⁻¹. The Km [13] was 15.0 µM, the kcat [13] was 0.15 s⁻¹ and the kcat/Km [13] was 10000 M⁻¹ s⁻¹.

Reference: US7132252B2, “Methods for detecting the interaction of compounds with cytochrome P450 using optical molecular sensors” (Invitrogen Corporation, priority 1998, dated 2006)
